This is one part of the list.

B1: chr20:57651677:57651767:-|3pUTR|ENSG00000124225|msi1_unk|total|mutant (ssRNA)
RNA: GGGAGUUCUACAGUCCGACGAUCGUUGAGCUGUGUCUUGAAGGCAAAAGAAAAAAAAUUUCUACAGCCGUCUUUCUUGUUUCCCGUUGAGCUGCGUGCGUGAAUGCUUAUUUUCUUUUGUUUAUGAUAAUUUCACUUAACUUUCAACAGAGGAUUGAGCAUCA
B2: chr11:56232108:56233062:-|CDS|ENSG00000181718|control|control|control (ssRNA)
RNA: GGGAGUUCUACAGUCCGACGAUCGACAAUCCUCUUCAUGUAUGUGAGACCAAGUUCCAGCUAUGCUUCGGACCAUGACAUGAUAGUGUCAAUAUUUUACACCAUUGUGAUUCCCUUGCUGAAUCCCGUCAUCUACAGUUUGAGCAACAGAGGAUUGAGCAUCA
B3: chr1:93353930:93354034:+|CDS|ENSG00000117505|unk|FALSE|unique (ssRNA)
RNA: GGGAGUUCUACAGUCCGACGAUCUUUGGGAUUUGGCUCUUACAUCAGUGAAGUAAAAGAAGUCUUGCAAGAGUGUAAAACAGUAGCAUUAAAAAGAAGAAAGGCCAGUUCUCGUUUGGAAAACCUUGGCAUUCCUGAAGAAGACAACAGAGGAUUGAGCAUCA
B4: chr1:1785892:1785993:-|3pUTR|ENSG00000078369|msi1|FALSE|unique (ssRNA)
RNA: GGGAGUUCUACAGUCCGACGAUCUUUACUCUUAGAAUCGCAUGCUGUAGAAAUGCUCAAAAGUGCAUAUGGGACUCAGUCCUUAGGUGUUCUUUUUCUUUUAAGAAAUAACCUCUUACAGUUGUAACCAUUGCGGCUCUGUCCCAACAGAGGAUUGAGCAUCA
B5: chr18:21869459:21869560:+|3pUTR|ENSG00000101752|msi1|FALSE|unique (ssRNA)
RNA: GGGAGUUCUACAGUCCGACGAUCUAAAAGAUGGUCUUUAGUGCACGUGUAUCAUUAUAUACACGUUUUAAAGUCAUAUUGCUUAGCUUGUUAAUAAUGAUUCUGCAUGUGUGCUGGGUUUGGGUAAUUCUUUAAAGGAAGUUUCAACAGAGGAUUGAGCAUCA
B6: chr11:69651811:69651939:+|3pUTR|ENSG00000110092|msi1_unk|total|mutant (ssRNA)
RNA: GGGAGUUCUACAGUCCGACGAUCUAAAGCACAGCUGCCGUGGGGUUCCCGGCAUCUCUGUACUUUGCUUGCUCAUAUGCAUGCCGUCACUUUAUAAGUCAUUGUAUGUUAUUAUAUUCCGCCGGCCGAUGUGUAACCUCUUCACAACAGAGGAUUGAGCAUCA
B7: chr5:72207278:72207408:+|3pUTR|ENSG00000131711|msi1_unk|FALSE|overlapping (ssRNA)
RNA: GGGAGUUCUACAGUCCGACGAUCAGAGAACAAUGACCUCAUUUUAUUUUCUAUGUUAGUUAUUUAUUUCAAAAUUAACAUUUUAGUUGAUUUUUGUCUGAUAAGUCUAUGUUUUGCACUGCUAACUAUGAUGAGGGUUUAAAACAACAGAGGAUUGAGCAUCA
B8: chr17:4937608:4937709:-|3pUTR|ENSG00000108528|msi1|total|mutant (ssRNA)
RNA: GGGAGUUCUACAGUCCGACGAUCAAGCGUCUCUUCCUCAGUGGCUGAAGCGGCCGGGGGCUCCCACUCGCCUGCUGCGCCUACCGCCACUGCGCCCUGGGGGCCUGGGCUCUGCUGCCCUGGACCCCUCUAUUUAUUUCCCUUCAACAGAGGAUUGAGCAUCA
B9: chr3:81489889:81489990:-|3pUTR|ENSG00000114480|msi1|total|mutant (ssRNA)
RNA: GGGAGUUCUACAGUCCGACGAUCUUGGUCUAAAUUAUGAGGUACCAAGAUUGUUUCUUUGUUUCUUUUUUUCAAAUUGUGUUCCGAAAUACUGUAAUAAAUAUGCAGCCGUGAUAUAAAGAAUUAUAUCCAAGGUAAUAUAAACAACAGAGGAUUGAGCAUCA
B10: chr11:108393207:108393378:-|CDS|ENSG00000166323|control|control|control (ssRNA)
RNA: GGGAGUUCUACAGUCCGACGAUCUCUAGGACUAAUUCACACUGCAACAAAGGGGCUGAUUAGAGCUUUUGAAGAUGGGGGGAUAGAUUCUGUGAUGGAAUGGGAAGUGGAUGAAGUGCUGAACUGGACAAAUACACUGAACUUCAACAGAGGAUUGAGCAUCA
B11: chr2:88557131:88557241:-|3pUTR|ENSG00000172071|msi1|FALSE|unique (ssRNA)
RNA: GGGAGUUCUACAGUCCGACGAUCGAGGACAAGUAGCACAAACUGUAUAACGGUUUAUGUCCGUAGUUUUAUAGUCCUAUUUGUAGCAUUCAAUAGCUUUAUUCCUUAGAUGGUUCUAGGGUGGGUUUACAGCUUUUUGUACUUCAACAGAGGAUUGAGCAUCA
B12: chr5:72209348:72209524:+|3pUTR|ENSG00000131711|msi1_unk|total|mutant (ssRNA)
RNA: GGGAGUUCUACAGUCCGACGAUCUUAUGUCUUAUAAUCCUGCAUCACUUCUAUCCUAUCCAGUCAUAUCUAAUGCCGAAAAUCCGUUUCCAGUGAAAGUAAUAUGCCGUGCUUUUAUGAUAUUUGUGUGCAAUAUCCCCUCUUCAACAGAGGAUUGAGCAUCA
B13: chr7:2664602:2664704:+|3pUTR|ENSG00000136295|msi1_unk|FALSE|overlapping (ssRNA)
RNA: GGGAGUUCUACAGUCCGACGAUCUCCUCCAGCCUCUGUAGGGCCAUGGCUGUAUGUACUGUCGCUGUGUUUUUUUGUUUUUUUAGAACUGGGUUUGGGGGCUGAUUUUUAUUUCUUUGGGGGCUUUUUUUCUUGGCAAAUACUCAACAGAGGAUUGAGCAUCA
B14: ENSG00000107863:be:win_3801|CDS|ENSG00000107863|bound_else_gene|NA|bound_elsewhere_windowed (ssRNA)
RNA: GGGAGUUCUACAGUCCGACGAUCUGAACAUCAUUAUGAAACACUUAAGUUCCUUUCAGCUCAUCUGAAGACAGUGGCAGAAAAUUCAGAAAAAAAUAAGAUGGAACCAAGAAACCUAGCAAUAGUGUUUGGUCCCACCCUUGUCAACAGAGGAUUGAGCAUCA
B15: chr3:46835109:46836203:-|three_prime_utr|ENSG00000160808|control|control|control (ssRNA)
RNA: GGGAGUUCUACAGUCCGACGAUCUGAAGGCACAAGCUGUUCCAGUAUAAUAAAGAAAAUAAUUAAAUUAAGAAAAGUUAUACUAGAAAUAAGAUAUAGGUAUGAUUAUUAUUAAUCAUUAGUUUGUAGUAUUACUUUGUUCUACAACAGAGGAUUGAGCAUCA
B16: chr5:136174412:136174513:+|CDS|ENSG00000113658|unk|FALSE|unique (ssRNA)
RNA: GGGAGUUCUACAGUCCGACGAUCUAUGUUGGUGGAGAGGUGUAUGCGGAAUGCCUCAGUGACAGCAGCAUAUUUGUACAGAGUAGGAACUGCAACUUUCAUCAUGGCUUUCAUCCCACCACUGUCUGUAAGAUUCCCAGCAGCCAACAGAGGAUUGAGCAUCA
B17: chr8:93923365:93923466:+|CDS|ENSG00000164951|msi1|FALSE|unique (ssRNA)
RNA: GGGAGUUCUACAGUCCGACGAUCGCAGGAUGUGGUUAGGAUUGUGGGUGAGUACCUAACUGGCAUGCAUCACCAACAGCCAAUAGCUGUUGGUGGCUACAAGGUGACUCUGGGACAGAUGCAUGGCCUUUUAACAGAAAGGAGCAACAGAGGAUUGAGCAUCA
B18: chr14:92688591:92688692:+|3pUTR|ENSG00000100599|msi1|total|mutant (ssRNA)
RNA: GGGAGUUCUACAGUCCGACGAUCUCCCCAUGAGUCCCCCACACCCACCCCAUCCUCGGUCUUUGCAAAGAAGGGCCCGAGCUCCGUUUCCCCAGGACUGGCCCCGGAAGGAGCACCGGCCACAGCUGCUCCCCGUGCCACUCACAACAGAGGAUUGAGCAUCA
B19: ENSG00000175387:stop:overlap|stop_codon|ENSG00000175387|stop_codon|NA|stop_codon (ssRNA)
RNA: GGGAGUUCUACAGUCCGACGAUCUGUUUCAUUGCAUUCUUGCAUAUUCUGGAGUUCAUUUGUAUCUAUUUUCAAUGAGGUUAUAGAGUCAGCUGAUCUUUAUGUAAAAUAAAGUUGGAGGCCUCCAAAUUCAAAACUGUUGCACAACAGAGGAUUGAGCAUCA
B20: chr9:97930034:97931221:-|CDS|ENSG00000136929|control|control|control (ssRNA)
RNA: GGGAGUUCUACAGUCCGACGAUCCAAUGAAACAGAUCAAGGAAUAGCUGAGACAGAAGGCCUUUUUCCUAAAAUACAAGAAAUAGCUGAGCCUAAAGACCUUUCUACAAAAACACACCAAGAAUCAGCUGAACCUAAAUACCUCAACAGAGGAUUGAGCAUCA
B21: chr14:96489241:96489342:+|3pUTR|ENSG00000140057|unk|total|mutant (ssRNA)
RNA: GGGAGUUCUACAGUCCGACGAUCUAAAGUGUAUAAUUCAGUGGCACUAAGUUCAUUCACAAUGAUCUGCAGCCACCACUAUCCCGUCCAGAACUUUCUCAUCACCCCAAAUGGAAACCCAGCACCUAUCCGGCAGUCACGCUCCAACAGAGGAUUGAGCAUCA
B22: chr22:29286963:29287064:+|CDS|ENSG00000182944|unk|total|mutant (ssRNA)
RNA: GGGAGUUCUACAGUCCGACGAUCCAGAGCAGUUACUCUCAGCAGAACACCUAUGGGCAACCGAGCAGCUAUGGACAGCAGAGCCGCUAUGGUCAACAAAGCAGCUAUGGGCAGCAGCCUCCCACCCGUUACCCACCCCAAACUCAACAGAGGAUUGAGCAUCA

For this assay, the target named is MSI1 full-length (mouse, UniProt Q61474 1-362). Briefly: nsRBNS (natural sequence RNA bind-n-seq); RBNS binding buffer (assumed for nsRBNS): 25 mM Tris pH 7.5, 150 mM KCl, 3 mM MgCl2, 0.01% Triton X-100, 500 ug/ml BSA, 20 U/ml SUPERase-In, 4 C; UNK is unkempt and MSI1 is Musashi-1; names of the RNAs are library labels; protein concentration not given here; high values mean tight binding.
UniProt Q61474, sequence (Q61474 whole entry): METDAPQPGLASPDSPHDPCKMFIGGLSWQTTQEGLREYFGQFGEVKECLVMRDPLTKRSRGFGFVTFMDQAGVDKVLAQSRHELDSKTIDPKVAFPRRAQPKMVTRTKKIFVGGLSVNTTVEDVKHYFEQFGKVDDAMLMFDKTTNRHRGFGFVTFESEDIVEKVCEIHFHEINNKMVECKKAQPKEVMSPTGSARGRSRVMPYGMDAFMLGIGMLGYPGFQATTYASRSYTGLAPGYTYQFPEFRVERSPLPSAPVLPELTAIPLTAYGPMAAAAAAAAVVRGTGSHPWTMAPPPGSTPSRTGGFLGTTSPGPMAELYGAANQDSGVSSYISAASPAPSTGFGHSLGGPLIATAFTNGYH
With B1, the binding signal came to 0.725 enrichment R.

With B2, the binding signal was 0.207 enrichment R.

For the molecule B3, the binding signal was 3.44 enrichment R.

In the case of B4, the binding signal amounted to 0.395 enrichment R.

The molecule B5 showed a binding signal of 0.4 enrichment R.

B6 had a binding signal of 0.426 enrichment R.

Regarding B7, the binding signal turned out to be 1.11 enrichment R.

Molecule B8 showed a binding signal of 0.667 enrichment R.

B9 displayed a binding signal of 0.643 enrichment R.

For B10, the binding signal came to 0.767 enrichment R.

The molecule B11 showed a binding signal of 14.3 enrichment R.

Molecule B12 came in with a binding signal of 0.64 enrichment R.

Consider B13, for which the binding signal is 1.75 enrichment R.

Take B14: the binding signal was 0.237 enrichment R.

B15: the binding signal was 24.8 enrichment R.

For the molecule B16, the binding signal is 0.546 enrichment R.

Molecule B17 yielded a binding signal of 0.408 enrichment R.

As for B18, the binding signal turned out to be 0.586 enrichment R.

Regarding B19, the binding signal amounted to 0.726 enrichment R.

Molecule B20 gave a binding signal of 0.607 enrichment R.

For B21, the binding signal came out at 0.33 enrichment R.

Consider B22, for which the binding signal was 0.594 enrichment R.
